In all, about 310,000 compounds went through this assay and about 2,200 (0.71%) showed an effect of 50% or more. The effect is printed as a negative number. Some of the results follow.

The target of the experiment is human ether-à-go-go-related gene (hERG) potassium channel (human, UniProt Q12809). Kind of experiment: primary screen, population patch clamp on CHO cells stably expressing hERG.
Sequence of human ether-à-go-go-related gene (hERG) potassium channel (Q12809 whole entry, looked up): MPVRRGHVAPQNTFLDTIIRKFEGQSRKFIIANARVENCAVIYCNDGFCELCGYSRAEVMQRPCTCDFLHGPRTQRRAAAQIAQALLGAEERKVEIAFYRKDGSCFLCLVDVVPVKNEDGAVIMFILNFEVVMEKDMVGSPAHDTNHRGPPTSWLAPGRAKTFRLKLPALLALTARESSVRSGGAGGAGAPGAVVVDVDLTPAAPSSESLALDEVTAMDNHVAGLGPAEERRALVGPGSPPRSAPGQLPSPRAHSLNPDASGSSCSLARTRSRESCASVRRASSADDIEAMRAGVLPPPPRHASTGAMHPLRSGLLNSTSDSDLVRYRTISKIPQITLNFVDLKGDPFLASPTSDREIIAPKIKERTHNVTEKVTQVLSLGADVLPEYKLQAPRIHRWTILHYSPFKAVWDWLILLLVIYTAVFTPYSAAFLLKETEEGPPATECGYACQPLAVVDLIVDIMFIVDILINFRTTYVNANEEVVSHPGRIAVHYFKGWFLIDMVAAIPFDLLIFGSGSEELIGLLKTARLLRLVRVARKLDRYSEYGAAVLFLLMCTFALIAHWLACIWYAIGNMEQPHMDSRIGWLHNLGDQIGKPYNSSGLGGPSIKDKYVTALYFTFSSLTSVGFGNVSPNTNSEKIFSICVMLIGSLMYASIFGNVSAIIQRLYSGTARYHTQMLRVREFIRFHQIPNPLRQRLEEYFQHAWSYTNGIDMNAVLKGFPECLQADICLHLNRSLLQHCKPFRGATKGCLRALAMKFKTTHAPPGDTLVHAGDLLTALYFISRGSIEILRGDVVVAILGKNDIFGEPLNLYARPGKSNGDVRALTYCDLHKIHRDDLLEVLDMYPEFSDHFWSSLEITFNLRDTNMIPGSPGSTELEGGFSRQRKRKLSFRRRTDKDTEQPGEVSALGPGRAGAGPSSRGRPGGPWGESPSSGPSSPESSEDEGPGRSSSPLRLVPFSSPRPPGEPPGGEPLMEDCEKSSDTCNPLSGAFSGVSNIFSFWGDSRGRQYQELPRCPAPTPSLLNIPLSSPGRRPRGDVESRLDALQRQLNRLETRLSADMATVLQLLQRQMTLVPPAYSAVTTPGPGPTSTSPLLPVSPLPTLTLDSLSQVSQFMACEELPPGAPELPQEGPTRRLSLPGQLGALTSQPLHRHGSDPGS
`CCCCCCNCC(=O)N1CCC(Cc2ccccc2)CC1`: the “hERG current change (%, negative = inhibition) at 1uM” value is -49.9%. `Cc1ccc2nsnc2c1NC(=O)c1ccc(-c2cc(Cl)ccc2Cl)o1`: the “hERG current change (%, negative = inhibition) at 1uM” value turned out to be 12.4%. Regarding `COc1cc(C=O)ccc1OCCOCCOc1cc(C)ccc1Cl`, the “hERG current change (%, negative = inhibition) at 1uM” value is given as -1.67%.

As to `COc1ccc2c(c1)OC1=C(C(=O)CCC1)C2C1=C(O)CCCC1=O` (stereo not drawn), the “hERG current change (%, negative = inhibition) at 1uM” value is given as 14.7%. As to `CC(CC(=O)O)CC(=O)Nc1cccc([N+](=O)[O-])c1` (stereo not drawn), the “hERG current change (%, negative = inhibition) at 1uM” value was -0.875%. For the molecule `N#Cc1c(Sc2ncc(C(F)(F)F)cc2Cl)nsc1C/C=N\OCc1ccccc1Br`, the “hERG current change (%, negative = inhibition) at 1uM” value came to 2.32%. As to `COc1cccc(-n2cc(-c3ccc(F)cc3)[nH]c2=S)c1`, the “hERG current change (%, negative = inhibition) at 1uM” value is 14%. `COc1cc(C(=O)N2CCc3ccccc32)c([N+](=O)[O-])cc1OC`: the “hERG current change (%, negative = inhibition) at 1uM” value was 14.1%. Regarding `CC(NC(=O)Nc1ccc2c(c1)OCO2)C1CCCO1` (stereo not drawn), the “hERG current change (%, negative = inhibition) at 1uM” value worked out at 6.5%. `O=C(O)c1ccccc1-c1csc(-c2ccccc2)n1`: the “hERG current change (%, negative = inhibition) at 1uM” value is on record as 13.1%. Turning to `Cn1c(SCC(=O)Nc2ccc3c(c2)OCCO3)nnc1-c1cccnc1`, the “hERG current change (%, negative = inhibition) at 1uM” value is 12.9%.

In the case of `CCN(CC)c1ccc(/C=N/N2C(C)CCCC2C)c(O)c1` (stereo not drawn), the “hERG current change (%, negative = inhibition) at 1uM” value came out at 12.6%. On to `Cc1ccc(NC(=O)NCc2c(C)nn(C)c2C)cc1Cl`, for which the “hERG current change (%, negative = inhibition) at 1uM” value is on record as 12.4%. In the case of `Cc1n[nH]c(C)c1N1C(=O)c2cccc3c(Br)ccc(c23)C1=O`, the “hERG current change (%, negative = inhibition) at 1uM” value is 6.88%. On to `NC(=O)CSc1nnc(COc2ccccc2)n1Cc1ccco1`, for which the “hERG current change (%, negative = inhibition) at 1uM” value is 11%. Regarding `COc1cccc(N(CC(=O)Nc2cccc(F)c2)S(C)(=O)=O)c1`, the “hERG current change (%, negative = inhibition) at 1uM” value is reported as 8.43%.

With `Cc1ccc(CNC(=O)c2ccccc2SCC(=O)NCC2CCCCC2)cc1`, the “hERG current change (%, negative = inhibition) at 1uM” value is recorded as -2.39%. In the case of `CCOC(=O)C1(C)NC(c2cccs2)C2C(=O)N(c3ccccc3)C(=O)C21` (stereo not drawn), the “hERG current change (%, negative = inhibition) at 1uM” value was 17.5%.

Regarding `CCCCCC(=O)OC(CN1CCCC1=O)C[NH+]1CCCCCC1.[Cl-]` (stereo not drawn), the “hERG current change (%, negative = inhibition) at 1uM” value is given as -2.68%. In the case of `COC(=O)c1ccc(CSc2nnc(NC(=O)C3CC(=O)N(c4ccc5c(c4)OCCO5)C3)s2)cc1` (stereo not drawn) it was 10.2%; in that of `COc1ccc(-c2cc(C(F)(F)F)nc(S(=O)(=O)CCC(=O)N3CCOCC3)n2)cc1`, 10.9%; in that of `COc1cccc2c1Oc1ncccc1N(C(=O)CCC(=O)NCc1ccccc1Cl)C2`, 8.41%. As to `C=CCN1C(=O)NC(=O)/C(=C\c2ccc(-c3ccccc3[N+](=O)[O-])o2)C1=O`, the “hERG current change (%, negative = inhibition) at 1uM” value is 4.02%. As to `COc1cc(/C=C2\SC(=S)N(Nc3ccccc3)C2=O)ccc1O`, the “hERG current change (%, negative = inhibition) at 1uM” value was found to be 5.31%. Take `Cc1cccc(NC(=O)NCC(c2ccc(F)cc2)N2CCN(C)CC2)c1` (stereo not drawn): the “hERG current change (%, negative = inhibition) at 1uM” value is -1.38%. In the case of `O=C(Nc1nc(-c2ccc(S(=O)(=O)N3CCCCCC3)cc2)cs1)c1cccs1` it was 12.8%; in that of `Fc1ccc(-c2csc(N3CCSCC3)n2)cc1`, 15.7%. In the case of `CCCC(C)NC(=S)NC(=O)c1cc(S(=O)(=O)N2CCOCC2)ccc1C` (stereo not drawn) it was 7.96%; in that of `Cc1nnc(SC(C)C(=O)Nc2ccc3ccccc3c2)[nH]c1=O` (stereo not drawn), 19.2%; in that of `O=C(c1ccc2ccccc2c1)C1CCCN(S(=O)(=O)c2cccnc2)C1` (stereo not drawn), 13.4%. `Cc1cc(C)c(C)c(S(=O)(=O)N2CCN(CC(=O)Nc3ccc([N+](=O)[O-])cc3)CC2)c1C`: the “hERG current change (%, negative = inhibition) at 1uM” value stood at 12.5%.

Turning to `COc1cc(C(=S)NC2CCCCC2)ccc1O`, the “hERG current change (%, negative = inhibition) at 1uM” value is listed as 8.16%. In the case of `COc1cc(OC)cc(C(=O)NNC(=O)NC2CCCCC2)c1` it was 5.01%; in that of `O=C(COC(=O)CNS(=O)(=O)c1ccc(F)c(F)c1F)NCCc1ccccc1`, 10.9%; in that of `c1ccc(NC2=NCCN2CCCC2CCCCC2)cc1`, -6.37%. In the case of `CCOC(=O)CNC(=O)CSc1nc2cccnc2n1Cc1ccccc1`, the “hERG current change (%, negative = inhibition) at 1uM” value was -30.1%. On to `CCCNC(=O)CCn1c(=S)oc2ccccc21`, for which the “hERG current change (%, negative = inhibition) at 1uM” value is 10.7%. In the case of `CCOc1ccc(-c2cn(-c3ccccc3OC)c(=S)[nH]2)cc1` it was 7.02%; in that of `O=C(NCCc1ccccn1)c1nc(Cn2ccc([N+](=O)[O-])n2)no1`, 5.97%; in that of `CC1CCCN(C(=O)CCCC(=O)N2CCCC(C)C2)C1` (stereo not drawn), 2.51%. Regarding `N#CCCN(Cc1cccnc1)C(=S)NC(=O)C1CC1`, the “hERG current change (%, negative = inhibition) at 1uM” value is -0.462%. In the case of `COc1ccc(C(=O)C2CCCN(Cc3cccc4c3OCO4)C2)cc1OC` (stereo not drawn) it was -29.3%.

For `Cc1ccccc1OCC(=O)N/N=C/c1c(C)nn(-c2ccccc2)c1Cl`, the “hERG current change (%, negative = inhibition) at 1uM” value is on record as 7.93%. Regarding `Cc1ccccc1-n1nnnc1SCC(=O)Nc1ccc(N2CCN(C)CC2)cc1`, the “hERG current change (%, negative = inhibition) at 1uM” value is on record as -12.3%.

For `O=C(O)c1nn(CC(=O)N(C2CCCCC2)C2CCCCC2)c(=O)c2ccccc12`, the “hERG current change (%, negative = inhibition) at 1uM” value worked out at 10.4%.

Source of the values: paper PMC4336329 (PLoS ONE, 2015).
